Experimental data reported in PubChem BioAssay AID463173 (ICCB-Longwood Screening Facility, Harvard Medical School, 2010).
Among all 52,000 compounds or so, about 1,700 (3.3%) were called active. No stated cut-off is given here; in the data, active means survival mostly below about 52% (no sharp cut-off); inactive means mostly above about 56%. The list shows a part of the results.

Tested on: Wild type
Assay: S. aureus survival, RN4220 and DeltatarO strains – OD600, teichoic acid synthesis inhibitors, primary screen (AID 463173)
Conditions: S. aureus RN4220 wild type/DeltatarO growth, OD600, 18 h, hits give low values, screened at 18.75 µg/mL (by protocol)

| SMILES | survival |
| --- | --- |
| CCC12CN3CC(CC)(CN(C1)C3c1cccc(OC)c1O)C2=O (stereo unspecified) | inactive: 89% |
| Cc1cccc(N2CCN(C(=O)c3cn(C)c4ccc(S(=O)(=O)N(C)C)cc4c3=O)CC2C)c1 (stereo unspecified) | inactive: 94% |
| CN1CCN(C(=S)NCC2CCCO2)CC1 (stereo unspecified) | inactive: 108% |
| CCc1ccc(-n2c(SCc3nc(-c4cc(OC)ccc4OC)no3)nnc2-c2ccccc2)cc1 | inactive: 74% |
| CCOC(=O)c1c(NC(=O)CCCOc2ccc(C)cc2)sc2c1CCC(C)C2 (stereo unspecified) | active: 2% |
| COc1ccc(C2=CC(c3ccccc3Cl)n3nc(-c4ccc(C)cc4)nc3N2)cc1 (stereo unspecified) | inactive: 73% |
| CCc1nnc(SCC(=O)Nc2ccc(Cl)cc2F)c2cc3occc3n12 | inactive: 67% |
| CCc1ccc(CNC(=O)c2ccc(CS(=O)c3ccc(Br)cc3)o2)cc1 (stereo unspecified) | inactive: 106% |
| CCOC(=O)Cn1c(=O)n(-c2ccccc2OC)c2nc(-c3ccccc3)nc(C(N)=O)c21 | active: -3% |
| COc1ccc(-c2c(C)c3ccc(O)c(CN4CCCCC4)c3oc2=O)cc1OC | inactive: 77% |
| S=c1[nH]nc(NCCc2ccccc2)s1 | inactive: 69% |
| Cc1ccc2nc(N(Cc3cccnc3)C(=O)c3ccco3)sc2c1 | inactive: 65% |
| COc1cc2c3c(c1)C1(C(=O)N3C(C)(C)C=C2C)C(C#N)=C(N)NC(=O)C1C(N)=O (stereo unspecified) | inactive: 109% |
| COc1ccc(-c2nc3ccccc3s2)cc1NC(=O)c1ccc(C#N)cc1F | inactive: 147% |
| CCn1c(C(=O)NCc2ccc(C)cc2)cc2sc(Cl)cc21 | inactive: 78% |
| COc1cn(CC(=O)Nc2c(C)cc(C)cc2C)c(CN2CCCCC2)cc1=O | inactive: 68% |
| CC(C)c1ccc(NC(=O)c2ccc3oc(=O)c(S(=O)(=O)c4ccc(F)cc4)cc3c2)cc1 | inactive: 70% |
| CCOCCc1nn2c(=O)cc(COC(=O)COc3ccc(C)c(C)c3)nc2s1 | inactive: 69% |
| CCc1ccc(NC(=O)CC2C(=O)NCCN2C(=O)c2ccccc2OC)cc1 (stereo unspecified) | inactive: 121% |
| Cc1nc(SCc2cc(=O)c3cccc(F)c3[nH]2)n[nH]1 | inactive: 74% |
| CCOc1ccc(S(=O)(=O)NCCc2csc3nc(-c4ccc(OC)c(OC)c4)nn23)cc1 | inactive: 71% |
| CS(=O)(=O)N(CC(=O)N1CCCCC1)c1sc2c(c1C#N)CCCC2 | inactive: 105% |
| Clc1cccc(CSc2nc(NCCc3ccccc3)c3ccccc3n2)c1 | inactive: 66% |

| SMILES | survival |
| --- | --- |
| COc1ccccc1CNCc1ccc(C(=O)O)s1 | inactive: 85% |
| O=S(=O)(Nc1ccccc1-c1ccccc1)c1cccs1 | inactive: 132% |
| CC(C)c1ccc(NC(=O)CSc2ncnc3c2sc2ccccc23)cc1 | inactive: 84% |
| COc1ccc(NC(=O)Cn2ncc3c(C)n(Cc4cccc(Cl)c4)c(C)c3c2=O)cc1 | inactive: 89% |
| COc1ccc(C(=O)Nc2ccc(N3CCN(c4ccccc4)CC3)c(C(=O)O)c2)cc1 | inactive: 83% |
| COc1c(C)cccc1C(=O)Nc1ccc(Cl)c(-c2nc3cc(C)ccc3o2)c1 | active: -6% |
| CC(C)CCOc1ccc(Cn2c(=O)sc3ccccc32)cc1 | active: -3% |
| CCOc1ccc(CCNC(=O)CSc2nc3ccccc3nc2Cc2ccc(C)cc2)cc1OCC | inactive: 121% |
| COc1ccc(-c2nc3sc(CCNC(=O)Cc4ccc(Cl)cc4)c(C)n3n2)cc1 | inactive: 83% |
| CCN(CC)c1ccc(C(=O)NCc2ccc3c(c2)CCN3C(=O)c2cccc(C)c2)cc1 | inactive: 73% |
| CCN(CC)c1ccc(NC(=O)CN(C)S(=O)(=O)c2cccc3nsnc23)c(C)c1 | inactive: 129% |
| CCOc1ccc(C2C(=O)N(C3CCCCCC3)CC(=O)N2Cc2ccc(F)cc2)cc1OC (stereo unspecified) | inactive: 128% |
| CCOc1ccccc1NC(=O)Nc1ccc2nc(N3CCN(C)CC3)cc(C)c2c1 | inactive: 83% |
| CCOc1ccc(CCNC(=O)C(CC(C)C)N2Cc3ccccc3C2=O)cc1OCC (stereo unspecified) | inactive: 69% |
| Cc1ccc(CS(=O)Cc2ccc(C(=O)NCc3ccccc3Cl)o2)cc1 (stereo unspecified) | inactive: 83% |
| Cc1ccc(NC(=O)C2CCCN(c3cnccn3)C2)cc1Cl (stereo unspecified) | inactive: 85% |
| CCOc1ccc(NC(=O)CCc2nc3cccnc3n2Cc2ccc(OC)cc2)cc1 | inactive: 98% |
| Cc1ccccc1CN1C(=O)c2ccccc2Sc2ccc(C(=O)O)cc21 | inactive: 121% |
| Cc1ccc(N(CC(=O)NC2CCCC2)C(=O)c2ccc(N3CCCC3)nc2)cc1 | inactive: 104% |
| Nc1nnc(SCC(=O)Nc2cccc(F)c2)s1 | inactive: 160% |
| COc1ccccc1C(=O)Nc1cccc(OCc2cc(=O)n3c(C)csc3n2)c1 | inactive: 75% |
| O=S(=O)(c1cc(Br)c(Br)s1)N1CCN(c2ccccc2)CC1 | inactive: 75% |
| Clc1ccc(Nc2nc(-c3ccccc3)c3ccccc3n2)c(Cl)c1 | inactive: 86% |

| SMILES | survival |
| --- | --- |
| CC(C)c1ccc(NC(=O)C2CCN(S(=O)(=O)c3ccc(Br)s3)CC2)cc1 | inactive: 75% |
| Cc1ccc(S(=O)(=O)c2nnn3c2nc(NCc2ccccc2)c2sccc23)cc1 | inactive: 86% |
| O=c1[nH]c(-c2ccccc2)nn1-c1ccc(Br)cc1Br | inactive: 106% |
| CCOc1ccc(CCNC(=O)c2cc3cc4cc(OC)ccc4nc3s2)cc1OCC | inactive: 117% |
| COc1ccc(-c2noc(N3CCN(c4ccc(Cl)cc4)CC3)n2)cc1OC | inactive: 71% |
| CCc1nn2c(=O)cc(COC(=O)c3cccc(NC(=O)COc4ccccc4)c3)nc2s1 | inactive: 89% |
| COc1cccc(NC(=O)CCSc2nc(-c3ccco3)cc(C(F)(F)F)n2)c1 | inactive: 40% |
| COc1ccc2c(c1)CCc1c(C(=O)Nc3cnn(Cc4ccc(Cl)cc4Cl)c3)noc1-2 | inactive: 118% |
| COc1ccccc1NC(=O)C1=C(C)Nc2nc(SCc3ccccc3F)nn2C1c1ccncc1 (stereo unspecified) | inactive: 146% |
| CC(C)Cc1nn2c(=O)cc(COC(=O)c3ccccc3NC(=O)c3cccs3)nc2s1 | inactive: 76% |
| CCOc1ccccc1NC(=O)C(=O)c1cc(C)n(-c2cccc(C)c2C)c1C | inactive: 99% |
| Cc1cccc(NC(=O)CCN2CCC(C)CC2)c1 | inactive: 104% |
| CCc1cccc(C)c1NC(=O)C1CCN(c2nnc(C)c3c(C)n(-c4ccccc4)nc23)CC1 | inactive: 73% |
| Cc1cccc(NC(=O)C2CCN(S(=O)(=O)c3ccc4[nH]c5c(c4c3)CCCCC5)CC2)c1 | inactive: 80% |
| Cc1cc(C)cc(NC(=O)Cn2cc(C(=O)c3ccncc3)c(=O)c3cc(C)c(C)cc32)c1 | inactive: 93% |
| CCOC(=O)C(C)C1(O)c2ccccc2-c2ncccc21 (stereo unspecified) | inactive: 109% |
| COc1ccc(CNC(=O)C2CCN(S(=O)(=O)c3ccc4nc5c(c(C(=O)O)c4c3)CCCC5)CC2)cc1 | inactive: 95% |
| C=CCNCc1cccn1-c1ccccc1 | inactive: 115% |
| CCCCCn1c(=O)[nH]c2cc(C(=O)N3CCN(c4cccc(Cl)c4)CC3)ccc2c1=O | inactive: 85% |
| Cc1ccccc1NC(=O)c1cc2sccc2n1Cc1ccc(F)cc1 | inactive: 104% |
| CN(c1ccccc1)S(=O)(=O)c1nnc(NC(=O)c2ccco2)s1 | inactive: 70% |
| COc1ccc(OC)c(CNC(=O)c2cc(S(=O)(=O)N3CCC(C)CC3)cn2C)c1 | inactive: 89% |
| COc1cc2oc(=O)c(CC(=O)NCCc3ccccc3)c(C)c2cc1Cl | inactive: 90% |

| SMILES | survival |
| --- | --- |
| COc1cc(/C=N/NC(=O)c2cccc(N3CCCC3=O)c2)ccc1O | inactive: 108% |
| CSc1nn(Cc2ccccc2C)c(NC(C)=O)c1S(=O)(=O)c1ccc(C)cc1 | inactive: 78% |
| COc1ccc(NC(=O)CCc2nc3c(C)nn(-c4ccc(C)cc4)c3n(C)c2=O)c(OC)c1 | inactive: 90% |
| CCOC(=O)CCn1c(=O)c2cccn2c2cccnc21 | inactive: 88% |
| COCCN1Cc2cccc(C(=O)Nc3ccc(C(=O)OC)cc3)c2C1=O | inactive: 86% |
| Cc1cc2cc(CCNS(=O)(=O)c3ccc(Br)cc3)c(=O)[nH]c2cc1C | inactive: 57% |
| Cc1ccc(NC(=O)c2cc(S(=O)(=O)N3CCC(C)CC3)cn2C)cc1Cl | inactive: 73% |
| CC(CN)(NS(=O)(=O)c1ccccc1)c1ccccc1 (stereo unspecified) | inactive: 115% |
| CCOc1ccc(-c2c(C)nn3c(C)c(C(=O)Nc4cccc(Cl)c4C)cnc23)cc1OCC | inactive: 67% |
| COCCNC(=O)CCCn1c(SCC(=O)c2ccc(F)cc2)nc2c(sc3ccccc32)c1=O | inactive: 88% |
| Cc1ccc(NC(=O)/C(C#N)=C\c2ccc(-c3ccc(Cl)cc3)o2)c(C)c1 | inactive: 69% |
| O=C(CCS(=O)(=O)c1nc(-c2cccs2)cc(C(F)(F)F)n1)Nc1ccc(Br)cc1 | inactive: 67% |
| COc1ccccc1C(=O)Nc1ccc2nc(SCC(=O)N3CCCC3)sc2c1 | inactive: 84% |
| CCCCc1cc(O)c(CCCC)c(O)c1 | inactive: 38% |
| Cc1ccc2nc(-c3ccsc3)c(Nc3ccc(C(C)C)cc3)n2c1 | inactive: 130% |
| Cc1ccc(C)c(Nc2nnc(-c3ccc(C)c(S(=O)(=O)N4CCN(C)CC4)c3)c3ccccc23)c1 | inactive: 71% |
| CCc1ccc(NC(=O)C(=O)NCCc2csc(-c3cccc(F)c3)n2)cc1 | inactive: 89% |
| CCOc1ccc(NC(=O)CSc2oc(-c3cccs3)nc2S(=O)(=O)c2ccc(C)cc2)cc1 | inactive: 139% |
| CCn1nc(C)c2c(-c3ccccc3)cc(=O)n(C(C)C(=O)Nc3cccc(F)c3)c21 (stereo unspecified) | inactive: 90% |
| Cc1ccc(C2=CC(c3ccccc3C)n3c(nc4ccccc43)N2)cc1 (stereo unspecified) | inactive: 71% |
| C=CCC1Cc2ccccc2C(CC=C)N1 (stereo unspecified) | inactive: 100% |
| Cc1ccn2c(Nc3ccccc3C)c(-c3ccc(N4CCOCC4)cc3)nc2c1 | inactive: 113% |
